Assay results as given in paper PMC12820563, “FoxP3 forms a head-to-head dimer in vivo and stabilizes its multimerization on adjacent microsatellites”.
Some of the results follow.

These sequences were tested against T1, MBP-FoxP1dN (Mus musculus, UniProt P58462 326-579) (assay: PD-seq (MBP pull-down with sequencing); 20 mM Tris-HCl pH 7.5, 100 mM NaCl, 1.5 mM MgCl2, 0.4 uM protein, 0.1 uM dsDNA library, 30 min, room temperature, amylose pull-down; high values mean tight binding). Settings: protein: recombinant; tags: His6-MBP; chain copies: 2; dsDNA, one strand shown.
T1 sequence: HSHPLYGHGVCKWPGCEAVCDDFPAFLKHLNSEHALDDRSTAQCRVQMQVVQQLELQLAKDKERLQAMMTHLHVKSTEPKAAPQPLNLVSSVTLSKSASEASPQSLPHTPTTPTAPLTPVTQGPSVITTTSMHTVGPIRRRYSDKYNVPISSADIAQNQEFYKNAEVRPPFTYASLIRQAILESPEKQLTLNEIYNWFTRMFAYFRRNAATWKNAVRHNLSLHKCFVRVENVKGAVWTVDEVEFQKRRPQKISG
Outline: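 E. coli-expressed mouse FoxP3 or FoxP1 fragment, N-terminus removed and tagged with His6-MBP, was used at 0.4 µM against 0.1 µM of a Klenow-filled degenerate double-stranded DNA library. After 30 min at room temperature in Tris pH 7.5 buffer with NaCl and MgCl2, complexes were pulled down on amylose resin and washed three times. Binding is pull-down over input reads-per-million enrichment from pooled replicates of the proteinase K-released, PCR-barcoded, Illumina-sequenced DNA.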
With “GATGATTGTTCTCCCAGCTGATGAATTCTGGTGCTCGAGTAAACAAATTTTCCTAATCTTTCTGTTCAAGCGCCATCTAC” the binding signal was 0.797 RPM ratio (pull-down/input). With “GATGATTGTTCTCCCAGCTGATGAATTGGTTTAATCGAGTAAACAAATTTTCCTAATCTTTCTGTTCAAGCGCCATCTAC” the binding signal was 1.03 RPM ratio (pull-down/input). In the case of “GATGATTGTTCTCCCAGCTGATGAATTCGGTTGCTCGAGTAAACAAATTTTCCTAATCTTTCTGTTCAAGCGCCATCTAC”, the binding signal is reported as 0.897 RPM ratio (pull-down/input). With “GATGATTGTTCTCCCAGCTGATGAATTTAGGCGGTCGAGTAAACAAATTTTCCTAATCTTTCTGTTCAAGCGCCATCTAC” the binding signal was 0.809 RPM ratio (pull-down/input). In the case of “GATGATTGTTCTCCCAGCTGATGAATTGACAGACTCGAGTAAACAAATTTTCCTAATCTTTCTGTTCAAGCGCCATCTAC”, the binding signal is reported as 1.05 RPM ratio (pull-down/input). In the case of “GATGATTGTTCTCCCAGCTGATGAATTGTGATTTTCGAGTAAACAAATTTTCCTAATCTTTCTGTTCAAGCGCCATCTAC”, the binding signal is reported as 1.39 RPM ratio (pull-down/input). With “GATGATTGTTCTCCCAGCTGATGAATTACCGCCCTCGAGTAAACAAATTTTCCTAATCTTTCTGTTCAAGCGCCATCTAC” the binding signal was 0.793 RPM ratio (pull-down/input). With “GATGATTGTTCTCCCAGCTGATGAATTGAGGTACTCGAGTAAACAAATTTTCCTAATCTTTCTGTTCAAGCGCCATCTAC” the binding signal was 0.848 RPM ratio (pull-down/input). For “GATGATTGTTCTCCCAGCTGATGAATTGGAAGACTCGAGTAAACAAATTTTCCTAATCTTTCTGTTCAAGCGCCATCTAC”, the binding signal was 0.821 RPM ratio (pull-down/input). In the case of “GATGATTGTTCTCCCAGCTGATGAATTCGTAGTCTCGAGTAAACAAATTTTCCTAATCTTTCTGTTCAAGCGCCATCTAC”, the binding signal is reported as 0.855 RPM ratio (pull-down/input). “GATGATTGTTCTCCCAGCTGATGAATTTTAGCGATCGAGTAAACAAATTTTCCTAATCTTTCTGTTCAAGCGCCATCTAC” was tested, and the binding signal was 0.839 RPM ratio (pull-down/input). For “GATGATTGTTCTCCCAGCTGATGAATTCGCCCCTTCGAGTAAACAAATTTTCCTAATCTTTCTGTTCAAGCGCCATCTAC”, the binding signal was 0.821 RPM ratio (pull-down/input). With “GATGATTGTTCTCCCAGCTGATGAATTTGATAGTTCGAGTAAACAAATTTTCCTAATCTTTCTGTTCAAGCGCCATCTAC” the binding signal was 0.948 RPM ratio (pull-down/input). In the case of “GATGATTGTTCTCCCAGCTGATGAATTTTGAGTGTCGAGTAAACAAATTTTCCTAATCTTTCTGTTCAAGCGCCATCTAC”, the binding signal is reported as 0.89 RPM ratio (pull-down/input). In the case of “GATGATTGTTCTCCCAGCTGATGAATTCGCGTTTTCGAGTAAACAAATTTTCCTAATCTTTCTGTTCAAGCGCCATCTAC”, the binding signal is reported as 1.01 RPM ratio (pull-down/input). With “GATGATTGTTCTCCCAGCTGATGAATTGATCCTCTCGAGTAAACAAATTTTCCTAATCTTTCTGTTCAAGCGCCATCTAC” the binding signal was 0.828 RPM ratio (pull-down/input). In the case of “GATGATTGTTCTCCCAGCTGATGAATTAGATCACTCGAGTAAACAAATTTTCCTAATCTTTCTGTTCAAGCGCCATCTAC”, the binding signal is reported as 0.944 RPM ratio (pull-down/input). For “GATGATTGTTCTCCCAGCTGATGAATTTCAATCGTCGAGTAAACAAATTTTCCTAATCTTTCTGTTCAAGCGCCATCTAC”, the binding signal was 0.842 RPM ratio (pull-down/input). With “GATGATTGTTCTCCCAGCTGATGAATTGTAGAACTCGAGTAAACAAATTTTCCTAATCTTTCTGTTCAAGCGCCATCTAC” the binding signal was 0.862 RPM ratio (pull-down/input). In the case of “GATGATTGTTCTCCCAGCTGATGAATTTTTTAGGTCGAGTAAACAAATTTTCCTAATCTTTCTGTTCAAGCGCCATCTAC”, the binding signal is reported as 0.925 RPM ratio (pull-down/input). With “GATGATTGTTCTCCCAGCTGATGAATTAAATGATTCGAGTAAACAAATTTTCCTAATCTTTCTGTTCAAGCGCCATCTAC” the binding signal was 1.03 RPM ratio (pull-down/input). With “GATGATTGTTCTCCCAGCTGATGAATTTAAGGCGTCGAGTAAACAAATTTTCCTAATCTTTCTGTTCAAGCGCCATCTAC” the binding signal was 0.91 RPM ratio (pull-down/input). With “GATGATTGTTCTCCCAGCTGATGAATTTAACCTCTCGAGTAAACAAATTTTCCTAATCTTTCTGTTCAAGCGCCATCTAC” the binding signal was 0.836 RPM ratio (pull-down/input). In the case of “GATGATTGTTCTCCCAGCTGATGAATTCCCTATTTCGAGTAAACAAATTTTCCTAATCTTTCTGTTCAAGCGCCATCTAC”, the binding signal is reported as 0.89 RPM ratio (pull-down/input). For “GATGATTGTTCTCCCAGCTGATGAATTATCATGATCGAGTAAACAAATTTTCCTAATCTTTCTGTTCAAGCGCCATCTAC”, the binding signal was 1.05 RPM ratio (pull-down/input). For “GATGATTGTTCTCCCAGCTGATGAATTACAGCTTTCGAGTAAACAAATTTTCCTAATCTTTCTGTTCAAGCGCCATCTAC”, the binding signal was 1.09 RPM ratio (pull-down/input). With “GATGATTGTTCTCCCAGCTGATGAATTAAAATGGTCGAGTAAACAAATTTTCCTAATCTTTCTGTTCAAGCGCCATCTAC” the binding signal was 0.897 RPM ratio (pull-down/input). “GATGATTGTTCTCCCAGCTGATGAATTATTCAACTCGAGTAAACAAATTTTCCTAATCTTTCTGTTCAAGCGCCATCTAC” was tested, and the binding signal was 0.975 RPM ratio (pull-down/input). For “GATGATTGTTCTCCCAGCTGATGAATTACCAATCTCGAGTAAACAAATTTTCCTAATCTTTCTGTTCAAGCGCCATCTAC”, the binding signal was 0.961 RPM ratio (pull-down/input). With “GATGATTGTTCTCCCAGCTGATGAATTAAGACGATCGAGTAAACAAATTTTCCTAATCTTTCTGTTCAAGCGCCATCTAC” the binding signal was 0.826 RPM ratio (pull-down/input). For “GATGATTGTTCTCCCAGCTGATGAATTGCTTACCTCGAGTAAACAAATTTTCCTAATCTTTCTGTTCAAGCGCCATCTAC”, the binding signal was 1.41 RPM ratio (pull-down/input). For “GATGATTGTTCTCCCAGCTGATGAATTCTAGCAGTCGAGTAAACAAATTTTCCTAATCTTTCTGTTCAAGCGCCATCTAC”, the binding signal was 0.834 RPM ratio (pull-down/input).
